# In PubChem BioAssay AID445 (National Center for Advancing Translational Sciences (NCATS), 2006):
# Hit rate of the full screen: of about 110,000 compounds, about 40 (0.04%) were called active. This list was built around the results that the source calls inconclusive (neither active nor inactive); the mix of calls is not that of the screen. Calls come from the whole dose curve; as a rule, active = well fitted curve in the direction sought with a large enough effect in the signal ratio (not every such curve was filed as active); inconclusive = small, poorly fitted or top-dose-only effect, or a change in a side signal; inactive = flat fitted curve, though single readings scatter; the % refers to the signal ratio. A potency beside an inconclusive call is a rough fit, not a confirmed value.
# Assay: IkB Signaling;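 for IkBa stabilization activation: 0% = basal untreated cells and 100% = reference inhibitor full response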
# Details: ABC-DLBCL IkBa-CBG/CBR dual luciferase ratio (green luciferase fused to IkBa over red control in OCI-Ly3 lymphoma cells), 4 h; IkBa stabilization activation: at 57.1 µM (top of the series), scaled: untreated 0%, proteasome inhibitor 100% unless noted
# Procedure, shortened: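 In this assay, an IκBα–CBG68 fusion accumulates when IKK-driven degradation is blocked; native CBR normalizes for cell number. OCI-Ly3 cells were treated 4 h with compound and doxycycline, then green and red light read after Chroma-Glo addition.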
# Potency is the fitted concentration of half-maximal effect.
SMILES,Potency,IkBa stabilization activation
COc1ccc(C2C(C(=O)Nc3ccc(F)cc3)=C(C)Nc3nc(CCCO)nn32)cc1 (stereo not given),"inconclusive: 39.8 µM [signal inhibitor, partial curve]",–
O=C(Nc1c2c(nn1-c1ccc(Cl)cc1)CS(=O)(=O)C2)c1cccc(F)c1,–,inconclusive: -3.18% [signal inhibitor]
COC(=O)c1ccc(C2c3c(-c4ccccc4O)n[nH]c3C(=O)N2Cc2ccncc2)cc1 (stereo not given),–,inconclusive: -0.57% [signal inhibitor]
CC1CN(S(=O)(=O)c2ccc(NC(=O)c3cc(-c4ccccc4O)n[nH]3)cc2)CC(C)O1 (stereo not given),–,inconclusive: 16.5% [signal inhibitor]
CC(C)c1nn2c(=O)cc(COC(=O)c3ccccc3NC(=O)COc3ccccc3)nc2s1,–,inconclusive: 4.54% [signal inhibitor]
Cc1nc(SCC(=O)Nc2ccccc2)c2oc3ccccc3c2n1,–,inactive
Cc1cccc(OCc2ccc(-c3nc(C#N)c(NCc4cccnc4)o3)o2)c1,–,inconclusive: 5.77% [signal inhibitor]
COC(=O)C1=CNC=C(C(=O)OC)C1c1ccccc1Cl,–,inactive
CC1(C)CCC(NC(=O)[C@H](N)CCC(=O)O)CC1,–,inactive
CCOC(=O)c1c(S(=O)(=O)N2CCCC(C(=O)Nc3ccccn3)C2)c(C)n(C)c1C (stereo not given),–,inconclusive: -1.29% [signal inhibitor]
COc1ccccc1CN1CC[C@@]2(CCCN(C(=O)c3cnccn3)C2)C1,–,"inactive: 3.29% [at 11.4 µM, scaled: untreated 0%, proteasome inhibitor 100%]"
COc1ccc(CN2CCc3c(c(=O)n4ncc(C(=O)N5CCN(c6ccc(F)cc6)CC5)c4n3C)C2)cc1,–,inconclusive: 2.23% [signal inhibitor]
Cc1ccc(-c2nc(CS(=O)CC(=O)N3CCN(c4cccc(Cl)c4)CC3)c(C)o2)cc1 (stereo not given),–,inactive
CCCOc1cccc(C2c3c(oc4ccccc4c3=O)C(=O)N2c2nncs2)c1 (stereo not given),"inconclusive: 31.6 µM [signal inhibitor, single point]",–
COc1cccc(C(=O)c2cn(CC(=O)NCc3ccccc3Cl)c3nc(C)ccc3c2=O)c1,"inconclusive: 39.8 µM [signal activator, single point]",–
O=C(Nc1cccc(O)c1)c1noc2c1CCc1ccccc1-2,"inconclusive: 0.0398 µM [rising, full curve]",–
Cc1ccc(C)c(Cn2c(CCCNC(=O)C3CCCCC3)nc3ccccc32)c1,–,inconclusive: 1.93% [signal inhibitor]
c1ccc(CNC2=NCCCCC2)cc1,–,inactive
Cc1c(Cl)cccc1NC(=O)Cn1cc(C(=O)c2cccs2)c2ccccc21,"inconclusive: 6.31 µM [signal inhibitor, single point]",–
O=C(COC(=O)c1cccs1)c1ccc2c(c1)OCCO2,–,inactive
CCOC(=O)c1[nH]c(C)c(C(=O)NC(CC)Cc2ccccc2)c1C (stereo not given),–,inconclusive: 0.644% [signal inhibitor]
Cc1ccc(C)c(NC(=O)Cn2c(=O)n(CC3CCCO3)c(=O)c3ccccc32)c1 (stereo not given),–,inactive
COc1ccc(NC(=O)Nc2cc(C)ccn2)cc1,–,inactive
O=C(COC(=O)c1cccs1)c1ccccc1,–,inactive

SMILES,Potency,IkBa stabilization activation
Cc1ccc(-c2nnn3c2nc(NCC(C)c2ccccc2)c2ccccc23)cc1 (stereo not given),–,inconclusive: 3.33% [signal inhibitor]
COc1cccc(CNC(=O)c2ccc3c(c2)nc2n3CCOC2)c1,–,inactive
Cc1nnc(NC(=O)c2nc(SCc3ccccc3F)ncc2Cl)s1,–,inconclusive: 12.1% [signal inhibitor]
N#Cc1ccc(COC(=O)c2ccc3c(=O)[nH]c(CN4CCOCC4)nc3c2)cc1,–,inactive
COc1ccc(OCCSc2ncccn2)cc1,–,inactive
Clc1ccc(OCc2nnc(SCCN3CCCCC3)n2Cc2ccco2)cc1,–,inconclusive: 0.964% [signal inhibitor]
C=C(C)COc1ccc2c(C)c(C)c(=O)oc2c1OCC(=C)C,–,inactive
O=C(CN1CCCC1)NCC12CC3CC(CC(C3)C1)C2,–,inactive
COc1cccc(C2=CC(c3cc(Br)ccc3F)n3nnnc3N2)c1 (stereo not given),–,inconclusive: 2.74% [signal inhibitor]
Cc1ccc(NC(=O)Nc2sc3nc4n(c(=O)c3c2C)CCC(C)CC4)c(Cl)c1 (stereo not given),–,inconclusive: -0.848% [signal inhibitor]
COc1cccc(OC)c1C(=O)Nc1nc2c(s1)CCc1ccccc1-2,"inconclusive: 15.8 µM [signal inhibitor, partial curve]",–
Cc1nc(N2CCC3(CC2)OCCO3)c2nnn(Cc3ccccc3F)c2n1,–,inconclusive: 17.8% [signal inhibitor]
COC(=O)c1[nH]c2ccc(F)cc2c1NS(=O)(=O)c1ccc(OC)cc1OC,–,inconclusive: 11.3% [signal inhibitor]
COc1cccc(-c2ccc3ncnc(NCc4cccs4)c3c2)c1,–,"inactive: 0.57% [at 11.4 µM, scaled: untreated 0%, proteasome inhibitor 100%]"
Cc1cccc(N2C(=O)CSC23C(=O)N(CC(=O)NCc2ccccc2Cl)c2ccccc23)c1 (stereo not given),–,inconclusive: 12.3% [signal inhibitor]
CO[C@@]12C[C@@H](COC(=O)c3cncc(Br)c3)CN(C)[C@H]1Cc1cn(C)c3cccc2c13,–,inconclusive: 1.05% [signal inhibitor]
COc1ccc(C(=O)Oc2ccc(/C=N/O)cc2)cc1,–,inactive
COc1ccc(-c2nnc3n2N(C(C)=O)C(c2ccc(Cl)c(Cl)c2)=C(C(C)=O)S3)cc1,–,inconclusive: 7.73% [signal inhibitor]
CCN(C(=O)Cn1cnc2onc(-c3ccc(F)cc3)c2c1=O)c1ccc(OC)cc1,–,inconclusive: 4.79% [signal inhibitor]
COc1cc(C(=O)Nc2nc3ccccc3[nH]2)cc(OC)c1OC,"inconclusive: 25.1 µM [signal inhibitor, partial curve]",–
Cc1oc2ncn(CC(C)C)c(=O)c2c1C(=O)NC(C)c1ccccc1 (stereo not given),–,inconclusive: -1.2% [signal inhibitor]
COC(=O)Cc1c(C)c2ccc(OC(=O)c3ccco3)cc2oc1=O,–,inactive
Cc1cc(C)c2nc(NC(=O)c3ccc(S(=O)(=O)N4CCc5ccccc54)cc3)sc2c1,–,inconclusive: 5.95% [signal inhibitor]
Cc1ccc(CNc2ncnc3onc(-c4ccc(F)cc4)c23)cc1,–,inconclusive: -2.31% [signal inhibitor]

SMILES,Potency,IkBa stabilization activation
COc1ccc(C(=O)Nc2ccc3c(c2)CCCN3C(=O)c2cccs2)c(OC)c1,–,inconclusive: 7.24% [signal inhibitor]
Cc1cccc(-n2ccnc2SCC(=O)Nc2cccc3ccccc23)c1C,–,inconclusive: -0.296% [signal inhibitor]
Cc1cccc(-n2c(C)nc3cc(C(=O)NCCC4=CCCCC4)ccc32)c1,–,inconclusive: -3.52% [signal inhibitor]
Cc1ccc(/C=C/c2onc(C)c2S(=O)(=O)N2CCC(C(=O)N3CCN(c4ccccc4F)CC3)CC2)cc1,–,inactive
COc1ccc(NC(=O)CCNS(=O)(=O)c2cccc3nsnc23)cc1Cl,–,inconclusive: -0.334% [signal inhibitor]
CCn1c(=O)cc(OCC(=O)N2CCN(c3ccc(OC)cc3)CC2)c2ccccc21,–,inconclusive: 9.2% [signal inhibitor]
Cc1ccccc1Cc1c(C)nc2c(C(=O)NCc3ccco3)cnn2c1C,–,inconclusive: -1.45% [signal inhibitor]
Cc1cnc(N)c2c(=O)oc3ccccc3c12,–,inactive
C[C@@]12C[C@H](O)[C@@H]3[C@H](CCC4=CC(=O)CC[C@]43C)[C@H]1CC[C@@H]2c1csc(N)n1,–,"inactive: 1.92% [at 11.4 µM, scaled: untreated 0%, proteasome inhibitor 100%]"
COc1ccc(CCNC(=O)c2cc3sccc3n2Cc2ccc(Cl)cc2)cc1OC,–,inconclusive: -0.404% [signal inhibitor]
CCOc1ccccc1CN1CCc2nc(Nc3ccc4c(c3)OCCO4)ncc2C1,–,inconclusive: 3.29% [signal inhibitor]
COC(=O)c1ccccc1NC(=O)CSc1nc2ccccc2c(=O)[nH]1,–,inactive
CC(C)OC(=O)CSc1nnc(Cc2ccccc2)n1Cc1ccco1,–,inactive
COCC(=O)NCc1ccc2c(c1)OCO2,–,inactive
O=C(Nc1ccc2nc(SCC(=O)N3CCCC3)sc2c1)c1cccc(Cl)c1,–,inconclusive: -0.938% [signal inhibitor]
COc1ccc(NC(=O)Cn2c(=O)n(-c3ccc(C)cc3)c(=O)c3c2cnn3C)cc1,–,inconclusive: -4.49% [signal inhibitor]
CC(C)CCNC(=O)C1CCN(c2nc3ccc(Cl)cc3[nH]2)CC1,–,inconclusive: -0.224% [signal inhibitor]
Cc1noc(C)c1COC(=O)CCN1c2ccccc2Sc2ccccc21,–,inconclusive: 3.06% [signal inhibitor]
Cc1cc(=O)[nH]c(SCn2nnc3ccccc3c2=O)n1,–,inactive
Cc1cccn2c(=O)c3cc(C(=O)NCc4cccnc4)c(=N)n(CCCO)c3nc12,–,inconclusive: 0.0125% [signal inhibitor]
COC(=O)c1c(C)oc2ccc(N(C(=O)c3ccncc3)S(=O)(=O)c3c(C)cc(C)cc3C)cc12,–,inconclusive: 7.32% [signal inhibitor]
O=C(NCc1ccccc1)c1nc(S(=O)(=O)Cc2ccccc2)ncc1Cl,inconclusive: 6.31 µM [signal inhibitor],–
